Results reported in PubChem BioAssay AID434955 (Southern Research Specialized Biocontainment Screening …, 2010).
Some of the results follow. Further columns of the screen follow, without active or inactive calls. The list favours compounds with an active or inconclusive main result.

assay: beta-lactam sensitization of Mtb H37Rv, H37Rv (AID 434955);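 note: growth measured after seven days incubation then overnight dye step; 0% = bacteria only wells and 100% = bacteria with antibiotic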; conditions: M. tuberculosis H37Rv growth with meropenem, percent inhibition; measured here: primary screen without meropenem; at 25 µM

| Structure (SMILES) | inhibition [%] |
| --- | --- |
| O=C(Cn1c(C(F)(F)F)nc2ccccc21)c1ccc(Cl)cc1 | -6.22 |
| CCOC(=O)CSc1nnc(NC(=O)C2CC(=O)N(c3ccc(F)cc3)C2)s1 (stereo not drawn) | -5.82 |
| Cc1ccccc1N1CCN(C2CCCN(C(=O)CCN3CCCCO3)C2)CC1 (stereo not drawn) | 4.07 |
| O=C(CN1C(=O)c2cccnc2Oc2ccc(Cl)cc21)NCCc1ccccc1 | -5.72 |
| Cc1cc(C)n(-c2nc(-c3ccc(Cl)c(Cl)c3)cs2)n1 | -12.2 |
| CCCCCN1CC(=O)N2C(C)c3[nH]c4ccccc4c3C[C@H]2C1=O (stereo partly drawn) | 4.27 |
| CCC(C)[C@@H]1NC(=O)N(CCCN2CCCC2=O)C1=O (stereo partly drawn) | 3.32 |
| O=C(Nc1nnc(SCc2cccnc2)s1)C1CC(=O)N(c2ccc(F)cc2)C1 (stereo not drawn) | -3.3 |
| CCOC(=O)c1c(NC(=O)c2c(C(=O)O)cccc2[N+](=O)[O-])sc2c1CCCC2 | -6.81 |
| CC/C(=N\NC(=O)c1ccc(-c2ccccc2)cc1)C12CC3CC(CC(C3)C1)C2 | 3.69 |
| CCCCCCCC(=O)N/N=C/c1ccc(Br)cc1 | 99.3 |
| CC(C)(C)C(=O)/C=C(N)/C=C/c1ccccc1 | 10.1 |
| N#CCCCSc1nnc(-c2ccccn2)o1 | -4.69 |
| COc1cc(Cc2nccc3cc(OC)c(OC)cc23)c(S(=O)(=O)O)cc1OC | 3.7 |
| O=C(OCC#CCSc1nc2ccccc2o1)c1ccco1 | 99.9 |
| CCn1nnnc1SCC(=O)c1ccc(C)cc1C | -2.22 |
| CCOC(=O)c1cc(C(=O)OCC)cc(-n2cc(O)c(C(=O)OCC)n2)c1 | 8.82 |
| CCOc1ccc2nc(SCC(=O)Nc3nonc3C)[nH]c2c1 | 1.61 |
| O=C(c1cnn2c(C(F)(F)F)cc(-c3cccs3)nc12)N1CCN(C(c2ccccc2)c2ccccc2)CC1 | 40 |
| CCOC(=O)C1=C(C)NC2=C(C(=O)CCC2)C1c1cccnc1 (stereo not drawn) | 2.35 |
| Cc1nn(C)c(C(=O)NC(=S)Nc2ccccc2Br)c1Cl | 11.4 |
| Cc1cc(C(=O)CSc2nc3ccc(Cl)cc3[nH]2)c(C)n1C | -16.5 |

| Structure (SMILES) | inhibition [%] |
| --- | --- |
| Cc1cc(C)nc(NC(=S)Nc2cccc(F)c2)c1 | 28.3 |
| Cc1ccc(C)c(N2CCN(CC3CCCCC3)CC2)c1 | 38.3 |
| O=C(CN1CCC(O)(c2ccc3c(c2)OCO3)CC1)OC1CCCCC1 | 27.7 |
| CCOC(=O)Cn1nc(-c2ccc(C)cc2)c2ccccc2c1=O | 17.3 |
| Cn1cccc1Cc1nnc(SCC(=O)Nc2ccc(F)cc2F)n1-c1ccc(F)cc1 | -0.54 |
| C/C(=N\NC(N)=S)c1ccc(-n2ccnc2)cc1 | 0.39 |
| O=C1CN(C(=O)c2ccc(Br)o2)C(c2ccc(F)cc2)c2cc(F)ccc2N1 (stereo not drawn) | -4.75 |
| O=C(c1ccccc1)c1ccc2ccccc2n1 | 2.69 |
| CN(C)c1ccc(/C=C/C(=O)c2cccc(Br)c2)cc1 | 34.8 |
| Cc1cc(C)cc(NC(=O)C2CCCN2S(=O)(=O)c2ccc3c(c2)C(C)(C)C(=O)N3C)c1 (stereo not drawn) | -15.1 |
| CC1CCc2c(sc(NC(=O)C3=COCCO3)c2C(N)=O)C1 (stereo not drawn) | 40.8 |
| COc1cccc(C(=O)N2CCC(CCC(=O)Nc3cccc(C)c3)CC2)c1 | -1.84 |
| CCn1nnc2cc(C(=O)Nc3cc(S(C)(=O)=O)ccc3Cl)ccc21 | 5.42 |
| Cc1ccc(N=Cc2nc(/C=C/c3cccc([N+](=O)[O-])c3)oc2O)cc1 | -3.57 |
| NC1=Nc2ccccc2Oc2ccccc21 | -6.66 |
| Cc1cc(OCc2nnc(SCC(=O)OC3CCCCC3)o2)ccc1Cl | 99.6 |
| Cc1cccn2c(CNCCc3ccccn3)c(C(=O)N3CCOCC3)nc12 | -3.08 |
| O=C(CSc1ccc([N+](=O)[O-])cn1)Nc1ccc(N2CCOCC2)cc1 | 33.1 |
| COc1ccc2c(C)cc(SCc3c(C)noc3C)nc2c1 | 0.86 |
| C/C(=N\NC(=O)C1(C)CC1(Br)Br)c1cccc(NC(=O)c2ccc(C)o2)c1 (stereo not drawn) | 4.44 |
| O=C(N/N=C/c1ccc([N+](=O)[O-])o1)c1ccccc1-n1cccc1 | 24.1 |
| COCCNC(=S)N/N=C1\CC(C)CC(C)(C)C1 (stereo not drawn) | 2.77 |

| Structure (SMILES) | inhibition [%] |
| --- | --- |
| Cc1ccc(OCC(=O)n2cnnc2N)c(C)c1 | -5.62 |
| O=S(=O)(c1ccccc1)c1nc(-c2ccccc2)oc1NCCCN1CCOCC1 | 9.33 |
| CN(C)c1ccc(C(=O)c2ccc(N(C)C)cc2)cc1 | 2.76 |
| CCOC(=O)C1CCCN(C(=O)Cn2nc(C)n3nc(-c4ccccc4)cc3c2=O)C1 (stereo not drawn) | -6.22 |
| CC1CCN(CCCNC(=O)COc2cc(=O)n(C)c3ccccc23)CC1 | -4.22 |
| Cc1n[nH]c(=O)c2c1nnn2Cc1ccc(F)cc1 | -2.83 |
| Cc1ccc(-c2noc(CNS(=O)(=O)c3ccccc3)n2)cc1 | 4.84 |
| COc1ccc(C(=O)NC(=S)Nc2ccc(S(=O)(=O)Nc3cc(C)on3)cc2)cc1OC | 4.47 |
| COc1cc(/C=C(\C#N)C(=O)NCC2CCCO2)c([N+](=O)[O-])cc1OC (stereo not drawn) | 0.01 |
| COc1cccc2c1cc1c(=O)n(CC(=O)N3CCCCCC3)nc(C)n12 | -0.42 |
| Cc1ccc(N2CCN(CCc3ccccc3)CC2)cc1 | -0.48 |
| O=C(NCC1COc2ccccc2O1)C1CCC(CNc2c(N3CCCCC3)c(=O)c2=O)CC1 (stereo not drawn) | 48.3 |
| COc1cc2c(cc1OC)-c1cc(OCc3ccccc3Cl)nc(=O)n1CC2 | 7.03 |
| Cc1cccc(NCN2C(=O)c3ccncc3C2=O)n1 | -1.82 |
| COc1ccc(-c2cc(C(F)(F)F)nc(NCc3cccs3)n2)cc1 | 1.52 |
| CCCC(=O)Nc1ccc(NC(=S)NC(=O)c2cccs2)cc1 | 5.6 |
| CCCN1CCC(N2CCN(c3cccc(C(F)(F)F)c3)CC2)CC1 | -2.98 |
| COCCOC(=O)c1c(C)oc2ccc(OC(=O)c3c(OC)cccc3OC)cc12 | 2.34 |
| CCCn1nc(NC(=O)c2ccco2)c2cc3cc(C)ccc3nc21 | 30.3 |
| O=C(COC(=O)c1cc([N+](=O)[O-])ccc1N1CCOCC1)NCc1ccc(F)cc1 | 4.94 |
| O=C1NC(=O)N(Cc2ccco2)C(=O)/C1=C\c1ccc(-c2ccc(F)cc2)o1 | 29.1 |
| O=C(NCc1ccc2c(c1)OCO2)Nc1ccc2ccccc2c1 | 0.73 |

| Structure (SMILES) | inhibition [%] |
| --- | --- |
| COc1ccc(N(C(=O)c2ccncc2)S(=O)(=O)c2ccc(OC)c(OC)c2)cc1 | 2.16 |
| COc1ccccc1N(CN1CCCC1=O)C(=O)COc1ccccc1 | 2.5 |
| Cc1cc(C(=O)NCc2cccs2)n(-c2ccccc2)n1 | -6.27 |
| Cc1cccc(CSC2=NCCN2S(=O)(=O)c2ccc(F)cc2)c1 | 13.5 |
| CCOc1ccc(S(=O)(=O)N2CC(=O)Nc3ccccc32)cc1 | 7.09 |
| CCOC(=O)CSc1nc2c(c(=O)[nH]c(=O)n2C)n1CCCc1ccccc1 | -5.64 |
| Cc1ccc2c(c1)N(CC(=O)NCCCc1ccccc1)C(=O)c1cccnc1O2 | -16 |
| CCCc1ccc(-c2cc(NC(=O)CSc3n[nH]c(N)n3)n(-c3ccccc3)n2)cc1 | 54.1 |
| CCN1CCN(C(=O)C2CCN(c3nnc(-n4c(C)ccc4C)s3)CC2)CC1 | -7.71 |
| Cc1ccc(Cl)cc1N(Cc1ccc(C(=O)NCc2cccnc2)cc1)S(=O)(=O)c1ccccc1 | 3.36 |
| O=C(NC1(C(F)(F)F)Oc2ccccc2O1)N1CCC2(CC1)OCCO2 | 2.11 |
| O=c1cc(C(F)(F)F)c2sc(N3CCCCC3)nc2[nH]1 | 5.01 |
| O=C(c1cc2ccccc2o1)N1CCN(C/C=C/c2ccccc2)CC1 | 17.4 |
| CS(=O)(=O)N(Cc1ccc(Cl)cc1)c1ccc(C(=O)NCCC2=CCCCC2)cc1 | 0.27 |
| CCCn1cc(S(=O)(=O)c2ccc(C)cc2)c(=O)c2cc(OC)c(OC)cc21 | 5.54 |
| CCOC(=O)C1CCN(C(=O)CCNS(=O)(=O)c2cc(Br)cnc2N)CC1 | 0.41 |
| COc1ccc(-c2nnc(SCC(=O)N3CCOCC3)o2)cc1OC | -0.93 |
| O=C(Cc1ccccc1[N+](=O)[O-])Nc1ccc(S(=O)(=O)N2CCCC2)cc1 | 1.54 |
| CNc1oc(-c2ccccc2F)nc1S(=O)(=O)c1ccc(C)cc1 | -1.27 |
| CCCCC(=O)NC(=S)Nc1ccc(NC(=O)C(C)C)c(OC)c1 | -5.62 |
| O=C(c1ccc(Cl)cc1)N1CCC(N2CCC(C(=O)N3CCOCC3)CC2)CC1 | 5.72 |
| Cc1ccc(Cl)cc1N1CCN(C(=O)C2CCN(c3nnc(-n4cccc4)s3)CC2)CC1 | -17.3 |

| Structure (SMILES) | inhibition [%] |
| --- | --- |
| COc1ccc(/C=N\NC(=O)c2sc(N)nc2C)cc1OC | 4.68 |
| Cc1nnc(NC(=O)C2CCCN(c3ncccn3)C2)s1 (stereo not drawn) | -6.42 |
| O=C(CCS(=O)(=O)c1ccc(F)cc1)Nc1nnc(-c2cccs2)o1 | 32.6 |
| CC(C)(C)n1nc2c(c1NC(=O)C1CC(=O)N(c3ccc(Cl)cc3)C1)CS(=O)(=O)C2 (stereo not drawn) | 0.06 |
| CCn1c(SCCC(=O)O)nnc1-c1cccnc1 | 5.26 |
| Cc1cc2c3c(c1)C(C)(c1ccccc1)CC(C)(C)N3C(=O)C21C(C#N)=C(N)OC2=C1C(=O)CC(C)(C)C2 (stereo not drawn) | 88.1 |
| Cc1cc(CNC(=O)c2cc(COc3ccc(F)c(F)c3)on2)nn1C | 3.84 |
| CN1CCc2ccccc2C1C1CCNCC1 (stereo not drawn) | -11 |
| Nc1c2c(nc3sc4c(c13)CCCC4)-c1ccccc1CC2 | 20 |
| CCC(CC)NC(=O)CON=C1c2ccccc2-c2ccccc21 | 16 |
| Cc1nc2c(C(=O)NCCc3ccccc3)c[nH]n2c(=O)c1Cl | -10.4 |
| Cn1ncc(Br)c1C(=O)Nc1ccc(Br)cn1 | 2.21 |
| COc1ccccc1CNC(=O)C1CCCN(S(=O)(=O)c2cccc3cccnc23)C1 (stereo not drawn) | -4.3 |
| CN(Cc1ccccc1)C(=O)c1ccc2c(c1)OCO2 | 6.38 |
| CN(C)S(=O)(=O)c1ccc(C(=O)NCc2nnc(SCC(=O)N3CCCC3)o2)cc1 | -8.2 |
| CSc1nc(-c2ccc(Cl)cc2)nn1S(=O)(=O)c1ccccc1 | 30.6 |
| CN1CCN(c2ccncc2S(=O)(=O)N2CCCCC2)CC1 | -7.19 |
| CCOC(=O)c1ccc(N2CCOCC2)c(NC(=O)c2nccnc2C(=O)O)c1 | -0.22 |
| COc1ccc(S(=O)(=O)N2CCN(C(=O)c3cc(-c4ccccc4OC)n[nH]3)CC2)cc1 | 2.25 |
| O=C(NC1CC1)c1ccc(CS(=O)(=O)c2c(Cl)cccc2Cl)o1 | -5.08 |
